Measurements from paper PMC6919601, “Identification of Plasmodium dipeptidyl aminopeptidase allosteric inhibitors by high throughput screening” (PLoS ONE, 2019).
Where “and” joins values, the source holds several entries; their conditions need not be identical. Equal values may be shown once. The whole screen tested about 110,000 compounds, of which about 230 (0.21%) showed an effect of 50% or more. Some of the results follow.

Molecular target: DPAP1 (Plasmodium falciparum, UniProt Q8IIJ9)
Assay: primary screen, percent inhibition; read by cleavage of a fluorogenic dipeptide substrate; higher = more effect of the substance
Parameters: species or system P. falciparum D10 trophozoite lysates; single well
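Also: 30 min substrate incubation versus DMSO and 10 µM JCP410 controls.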

Chain of DPAP1 (Q8IIJ9 whole entry, looked up): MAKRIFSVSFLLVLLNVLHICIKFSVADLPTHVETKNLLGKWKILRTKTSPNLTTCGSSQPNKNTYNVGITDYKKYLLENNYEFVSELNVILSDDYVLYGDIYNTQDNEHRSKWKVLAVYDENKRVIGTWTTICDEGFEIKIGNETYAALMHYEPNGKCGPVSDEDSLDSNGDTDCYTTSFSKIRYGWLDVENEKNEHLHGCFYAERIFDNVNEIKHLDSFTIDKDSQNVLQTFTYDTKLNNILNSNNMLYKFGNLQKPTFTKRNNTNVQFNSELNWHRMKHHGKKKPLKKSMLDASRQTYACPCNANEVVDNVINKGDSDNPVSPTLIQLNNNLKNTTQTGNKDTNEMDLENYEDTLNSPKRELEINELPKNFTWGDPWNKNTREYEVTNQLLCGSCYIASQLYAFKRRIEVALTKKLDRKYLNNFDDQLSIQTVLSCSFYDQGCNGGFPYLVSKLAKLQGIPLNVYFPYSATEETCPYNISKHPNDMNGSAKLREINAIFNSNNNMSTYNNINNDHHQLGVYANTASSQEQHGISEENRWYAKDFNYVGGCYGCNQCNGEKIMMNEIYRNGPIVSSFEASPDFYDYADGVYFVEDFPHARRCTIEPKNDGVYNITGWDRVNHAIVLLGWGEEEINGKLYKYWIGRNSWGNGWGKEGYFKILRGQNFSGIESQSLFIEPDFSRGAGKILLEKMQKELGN

| Structure (SMILES) | % Inhibition @ 10 uM |
| --- | --- |
| CC(C)N(CC#CCC1(O)c2ccccc2-c2ccccc21)C(C)C | 5.93% |
| CC1CN(C)c2ccccc2-[n+]2ccsc21 (stereo not drawn) | -6.81% |
| OC(Cn1cccc1)c1ccccc1 (stereo not drawn) | 2.99% |
| CCSc1nc2sc3c(c2c(=O)n1-c1ccccc1)CCN(C)C3 | -3.44% |
| N#CCNC(=O)[C@H](CSCc1ccccc1)NC(=O)c1ccc(F)cc1 | 1.35% |
| CCN1CCCC(OC(=O)NC2CCCCC2)C1 (stereo not drawn) | 3.72% |
| Cc1sc2nc(-c3ccc(N(C)C)c(Br)c3)nc(O)c2c1C | 11.8% |
| Cn1cc(/C=C2/SC(=O)N(CC(=O)Nc3ccccc3)C2=O)c2ccccc21 | -5.82% |
| Cc1ccc2nc(NCc3ccccc3)c(/C=N/Cc3ccccc3)c(=O)n2c1 | -0.178% |
| Cc1ccc(C2C(C(=O)c3cccs3)=C(O)C(=O)N2CCN2CCOCC2)cc1 (stereo not drawn) | 0.367% |
| CCc1cc2c(cc3c(=O)n(CC(=O)NCCc4ccc(OC)c(OC)c4)nc(CC)n32)s1 | 3.29% |
| COc1ccc(C2C(C(=O)c3cc4ccccc4o3)=C(O)C(=O)N2CCCN2CCOCC2)cc1 (stereo not drawn) | -7.1% |
| O=C(CCc1nc2ccccc2[nH]1)NCCc1ccc(Cl)cc1 | -0.999% |
| O=C(COc1ccc(Cl)cc1)N1CCCCC1 | 4.54% |
| COc1ccc(C2C(C#N)=C(N)Oc3c2c(=O)oc2ccccc32)c(OC)c1 (stereo not drawn) | 2.31% |
| Cn1c(=O)c2c(n3ncnc13)NC(=O)CC2c1ccccc1F (stereo not drawn) | -1.05% |
| Cc1cc(C)cc(NC(=O)C23CCC(C)(C(=O)C2=O)C3(C)C)c1 (stereo not drawn) | 14.3% |
| CN1C(=O)C(=Cc2ccc(-c3ccccc3)o2)C(=O)N(C)C1=O | 2.26% |
| CCc1c(C)c2ccc3c(c2oc1=O)CN(c1ccccn1)CO3 | 2.65% |
| Cc1ccc(C(C)C)c(OCC(=O)Nc2ccc(Cl)cc2)c1 | 1.27% |
| COc1ccccc1-c1ccc(/C=C2\N=C(c3ccccc3)OC2=O)o1 | 9.39% |
| Cc1cccc(N2CCN(Cc3c(C)[nH]c4ccccc34)CC2)c1C | -2.56% |
| O=C(NCCc1ccccc1)c1ccc2oc(=O)c(S(=O)(=O)c3ccccc3)cc2c1 | -1.3% |
| O=C(Nc1ccc(S(=O)(=O)N2CCCCC2)cc1)c1ccco1 | -4.43% |
| Cc1nc([N+](=O)[O-])cn1-c1ccc(N)cc1 | -7.98% |

| Structure (SMILES) | % Inhibition @ 10 uM |
| --- | --- |
| O=C(c1nn2c(C(F)(F)F)cc(-c3ccccc3)nc2c1Cl)N1CCCc2ccccc21 | 3.32% |
| CCn1c(NCc2ccccn2)nc2ccccc21 | 3.48% |
| CN(C)CCCN(CCCN(C)C)CC1CCCCC1 | -0.0494% |
| CCCNC(=S)N1CC2(C)CN(C(=O)C(=O)OC)CC(C)(C1)C2=O | 4.66% |
| O=C(CSc1ccc(-c2cccs2)nn1)NCC1CCCO1 (stereo not drawn) | -5.57% |
| Cc1cc(O)nc(SCCOc2ccc(Cl)cc2)n1 | 4.98% |
| CC(C)CNC(=O)CCc1nc(-c2ccc(Cl)cc2)no1 | 3.62% |
| Fc1ccc(N2CCN(Cc3c(F)cccc3Cl)CC2)cc1 | 0.472% |
| CC(C)CN(CC(C)C)S(=O)(=O)c1ccccc1[N+](=O)[O-] | 2.6% |
| COc1ccc(NS(=O)(=O)c2ccc(NC(=O)c3cccc(C)c3)cc2)cc1 | 3.35% |
| CCCCSC1=C(C#N)C(c2ccccc2OC)C(C#N)C(=O)N1 (stereo not drawn) | 3.06% |
| O=C(NCc1ccccc1)c1cccc(S(=O)(=O)N2CCCCCC2)c1 | 0.812% |
| O=C(Nc1ccc(Cl)cn1)C(c1ccccc1)c1ccccc1 | 1.76% |
| Cc1sc(N)c(C(N)=O)c1-c1ccc(C(C)C)cc1 | 0.121% and 1.19% |
| CC(=O)N[C@@H](CCc1ccccc1)C(=O)N[C@@H](CC(C)C)C(=O)N[C@H](Cc1ccccc1)C(=O)N[C@H](/C=C/S(C)(=O)=O)CC(C)C | -4.82% |
| O=C(/C=C/c1ccccc1Cl)Nc1ccccc1Cl | 1.83% |
| COc1ccc(/C=C2\N=C(c3ccc(Cl)c(Cl)c3)OC2=O)cc1 | -5.99% |
| CC(C)CCNC(=O)c1nn(C)c2c1CS(=O)(=O)c1ccccc1-2 | 2.58% |
| COc1cccc(OC)c1C(=O)N1CCN(C(=O)c2ccccc2F)CC1 | 2.93% |
| Cc1ccc(S(=O)(=O)CCSc2cccc(C(=O)Nc3ccccc3)c2)cc1 | -3.55% |
| CC(Nc1nc(N2CCN(CCO)CC2)nc2ccccc12)c1ccccc1 (stereo not drawn) | -10.8% |
| C=CCn1c(SCCCc2ccccc2)nc2c1c(=O)n(C)c(=O)n2C | 3.05% |
| CCOc1ccc(C2(c3ccccc3OC)CCCC2)cc1 | -3.32% |
| CCOC(=O)c1cnc(SCc2nc(-c3ccc(Cl)cc3)oc2C)nc1N | 1.27% |
| COc1ccc(C(=O)n2nc3c(c2-c2ccc(OC)cc2)COC(C)(C)C3)cc1 | 3.59% |

| Structure (SMILES) | % Inhibition @ 10 uM |
| --- | --- |
| O=C(c1ccccc1Cl)N1N=C(c2ccccc2)CC1c1nc2ccccc2[nH]1 (stereo not drawn) | 1.24% |
| CCCCc1nnc2sc(NC(=O)c3ccccc3)nn12 | -3.51% |
| O=c1c(Oc2ccc(-c3ccccc3)cc2)coc2cc(O)ccc12 | -5.49% |
| CC(=O)ON1C(=O)C2C3c4ccccc4C(c4ccccc43)C2C1=O (stereo not drawn) | 38.9% |
| N/C(=N\OCc1cccc(C(F)(F)F)c1)c1nonc1N | 13.6% |
| c1ccc(Nc2nc(-c3ccncc3)cs2)cc1 | -4.98% |
| O=C(CSc1nnc(-c2ccccc2)c(-c2ccccc2)n1)Nc1nccs1 | -2.81% |
| CN(c1ccccc1)S(=O)(=O)c1ccc(Cl)c(C(=O)Nc2cccc(O)c2)c1 | -5.41% |
| Cc1ccc(OCc2ccc(C(=O)Nc3ncc(Br)s3)o2)cc1C | 3.72% |
| O=C(O)CCCN1C(=O)C2C3CC(C2C1=O)C1C(c2ccc(O)cc2)c2sc(O)nc2SC31 (stereo not drawn) | -7.27% |
| Cc1c(Cl)cccc1-n1nc(C)c2c(C)cc(=O)n(CC(=O)NCc3ccco3)c21 | 1.11% |
| CC(=O)c1ccc(N2CCN(Cc3ccc(C(=O)O)cc3)CC2)cc1 | 2.26% |
| O=C(NCc1ccco1)c1ccc(NS(=O)(=O)c2cccc(F)c2)cc1 | 0.214% |
| CCOc1ccc(Cl)cc1S(=O)(=O)Nc1ccncc1 | -4.26% |
| Fc1ccc(Cc2nnc(Cc3ccccc3)o2)cc1 | 3.51% |
| COc1cc(NC(=O)/C(=C/c2ccco2)NC(=O)c2ccc(C)c(C)c2)cc(OC)c1 | 8.68% |
| CCc1nnc(NC(=O)CSc2nccn2C)s1 | 1.13% |
| Clc1cccc(CNC2CCN(CCc3ccccc3)CC2)c1 | -4.75% |
| CC(C)CCn1c(CN2CCCCC2C)nc2c1c(=O)n(C)c(=O)n2C (stereo not drawn) | -1.43% |
| COc1ccc(CN2C(=O)CN(C3CCCCCC3)C(=O)C2c2ccc(OC(C)C)c(OC)c2)cc1 (stereo not drawn) | 2.79% |
| O=C(c1ccncc1)N1CCN(Cc2cccc3ccccc23)CC1 | 3.95% |
| COc1ccc(CCNc2nc(Cl)nc(N3CC4CC(C3)c3cccc(=O)n3C4)n2)cc1OC (stereo not drawn) | 2.7% |
| CC(=O)Nc1ccc(NC(=O)[C@@H]2C3C=CC(C3)[C@@H]2C(=O)O)cc1 (stereo partly drawn) | 2.38% |
| O=C(O)c1cccc(COc2cc(Cl)ccc2Cl)c1 | -4.05% |
| Cc1nc2ccc(C(=O)Nc3ccc(N(C)C)cc3)cc2s1 | -2.09% |

| Structure (SMILES) | % Inhibition @ 10 uM |
| --- | --- |
| COCCNc1cc(C)nc2c(-c3ccc(Cl)cc3)c(C)nn12 | 5.47% |
| COc1ccc(C(=O)Cn2c3ccccc3n3nc(-c4ccccc4)nc23)cc1OC | -7.38% |
| COC(=O)C1=C(C)N(C)C(=O)NC1c1ccc(OC)cc1 (stereo not drawn) | -0.13% |
| O=C(O)CCC1=NN2C=Nc3sc4c(c3C2NC1=O)CCCC4 (stereo not drawn) | -7.35% |
| CCCc1n[nH]c(SCc2cc(=O)n3nc(C)sc3n2)n1 | -3.57% |
| Cc1ccccc1Cn1c(C)c(CNCCc2cccs2)c(C(=O)O)c1C | -3.67% |
| Cc1cc(Br)cc(C)c1NC(=O)C1CCCN1C(=O)c1cccs1 (stereo not drawn) | -3.75% |
| CCC(Cc1ccccc1)NC(=O)C1CCN(c2nn3c(=O)cc(C)nc3s2)CC1 (stereo not drawn) | 4.55% |
| COc1ccc(CN2CCSCC2)cc1OC | 4.57% |
| CCOC(=O)N1CCN(C(=O)CN(Cc2ccc(Cl)cc2)S(=O)(=O)c2ccccc2)CC1 | 0.291% |
| O=C(NCCc1ccccc1)C(=O)c1c(-c2ccccc2)[nH]c2ccccc12 | -4.49% |
| CCCc1c(C)nc2c(OC)cccc2c1Cl | -3.09% |
| O=S1(=O)CC(O)C(S(=O)(=O)c2ccccc2)C1 (stereo not drawn) | -2.66% |
| CCOC(=O)N1CCC(NC(=O)c2ccc(CS(=O)(=O)c3c(Cl)cccc3Cl)o2)CC1 | -4.96% |
| CC1(C)CC2=Nc3ccccc3NC(c3ccc(Cl)cc3)C2=C(O)C1 (stereo not drawn) | -1.05% |
| Nc1cc(-c2ccccc2)nn1S(=O)(=O)c1cccc2nsnc12 | -9.6% |
| O=c1ccc2cc(S(=O)(=O)N3CCOCC3)ccc2o1 | 1.72% |
| O=C(c1scc2c1CCCC2)N1CCN(c2nc3ccccc3o2)CC1 | -1.98% |
| O=C1NC(=O)N(c2ccc(Br)cc2)C(=O)/C1=C/C=C/c1ccccc1 | -0.712% |
| CC(C)(C)c1ccc(S(=O)(=O)N2CCc3nc4ccccc4c(C(=O)O)c3C2)cc1 | 2.05% |
| Cc1ccc(C(=O)Nc2ccc(C#N)cc2)cc1 | 5.25% |
| CCOc1ccc(/C=C2\CCc3cc(OC)ccc3C2=O)cc1 | -1.31% |
| COCCNC(=O)c1cnn2c(C)c(Cc3cc(C)ccc3C)c(C)nc12 | -2.14% |
| COc1ccc(-c2onc(C)c2C)cc1S(=O)(=O)NCC1CCN(Cc2ccc(C)cc2)CC1 | -3.42% |
